Assay [1] concerns HSkMC (human skeletal muscle cells). In words: cytotoxicity call (relative viability < 0.9). The following applies: 10 µM.
In assay [2] the test system is HepG2. Nature of the assay: cytotoxicity call (relative viability < 0.9). The conditions noted are these: 10 µM.
Assay [3] has as its system S. aureus RN4220. Nature of the assay: growth inhibition call (relative growth <= 0.2). The conditions noted are these: 50 µM.

The other results are listed elsewhere or left out.

For `Cc1noc(C)c1S(=O)(=O)Nc1ccc2c(c1)CC(=O)N([C@H](C)CO)C[C@H](C)[C@@H](CN(C)CC1CC1)O2`, the cytotoxicity call in assay [1] and in assay [2] was “inactive” throughout. Also, the growth inhibition call in assay [3] is “inactive”.

In the case of `C[C@H]1CN([C@@H](C)CO)C(=O)c2cccc(NC(=O)c3cnccn3)c2O[C@H]1CN(C)Cc1ccncc1`, the cytotoxicity call in assay [1] and in assay [2] was “inactive” each time. The growth inhibition call in assay [3] was “inactive”.

For the molecule `C[C@@H]1CCCCO[C@H](CN(C)S(=O)(=O)c2ccc(F)cc2)[C@H](C)CN([C@@H](C)CO)C(=O)c2cc(NC(=O)c3ccccc3)ccc2O1`, the cytotoxicity call in assay [1] and in assay [2] was “inactive” throughout. Further, in assay [3], the growth inhibition call is “inactive”.

Turning to `Cc1ccc(S(=O)(=O)N[C@H]2CC[C@H](CC(=O)N3CCC(Cc4ccccc4)CC3)O[C@H]2CO)cc1`, the cytotoxicity call in assay [1] and in assay [2] was “inactive” in each case. In assay [3], the growth inhibition call is “inactive”.

Consider `COc1ccc(S(=O)(=O)N(C)C[C@@H]2Oc3ccc(NS(=O)(=O)c4cn(C)cn4)cc3C(=O)N([C@H](C)CO)C[C@H]2C)cc1`, for which the cytotoxicity call in assay [1] and in assay [2] was “inactive” in each case. For the same molecule, in assay [3], the growth inhibition call is “inactive”.

As to `C[C@H](O)C#Cc1ccc2c(c1)O[C@@H](CN(C)C(=O)c1ccccc1)[C@@H](C)CN([C@H](C)CO)S2(=O)=O`, the cytotoxicity call in assay [1] and in assay [2] was “inactive” throughout. In assay [3], the growth inhibition call was “inactive”.

As to `CCS(=O)(=O)Nc1ccc2c(c1)C(=O)N(C)[C@H]1CC[C@@H](CC(=O)N3CCN(C)CC3)O[C@@H]1CO2`, the cytotoxicity call in assay [1] and in assay [2] was “inactive” each time. The growth inhibition call in assay [3] was “inactive”.

As to `CC(C)NC(=O)N(C)C[C@H]1Oc2ccc(NS(=O)(=O)c3cccs3)cc2CC(=O)N([C@@H](C)CO)C[C@@H]1C`, the cytotoxicity call in assay [1] and in assay [2] was “inactive” in each case. The growth inhibition call in assay [3] was “inactive”.

On to `C[C@H]1CN([C@@H](C)CO)C(=O)c2cc(NC(=O)Nc3ccc(C(F)(F)F)cc3)ccc2O[C@@H]1CN(C)Cc1ccc(Oc2ccccc2)cc1`, for which the cytotoxicity call in assay [1] and in assay [2] was “inactive” throughout. Moreover, the growth inhibition call in assay [3] was “inactive”.

As to `C[C@@H]1CN([C@H](C)CO)C(=O)Cc2cc(N(C)C)ccc2O[C@@H]1CN(C)S(=O)(=O)c1ccc(Cl)cc1`, the cytotoxicity call in assay [1] and in assay [2] was “inactive” in each case. In addition, the growth inhibition call in assay [3] is “inactive”.

Take `Cc1noc(C)c1S(=O)(=O)N(C)C[C@@H]1OCCCC[C@H](C)Oc2ccc(NC(=O)Nc3cccc4ccccc34)cc2C(=O)N([C@H](C)CO)C[C@H]1C`: the cytotoxicity call in assay [1] and in assay [2] was “inactive” each time. Also, in assay [3], the growth inhibition call was “inactive”.

Turning to `COc1cc2nc(N3CCN(C(=O)C4CCCO4)CC3)nc(N)c2cc1OC.Cl` (stereo not given), the cytotoxicity call in assay [1] was “inactive”. In addition, in assay [2], the cytotoxicity call was “active”. Moreover, the growth inhibition call in assay [3] was “inactive”.

With `C[C@H]1CN([C@@H](C)CO)C(=O)c2cc(C#CC(C)(C)O)cnc2O[C@H]1CN(C)C(=O)CN(C)C`, the cytotoxicity call in assay [1] and in assay [2] was “inactive” each time. Also, the growth inhibition call in assay [3] is “inactive”.

On to `C[C@H]1CN([C@@H](C)CO)C(=O)Cc2cc(NS(=O)(=O)c3ccc(F)cc3)ccc2O[C@H]1CN(C)S(C)(=O)=O`, for which the cytotoxicity call in assay [1] and in assay [2] was “inactive” throughout. Moreover, in assay [3], the growth inhibition call was “inactive”.

On to `COc1ccc(S(=O)(=O)Nc2ccc3c(c2)C(=O)N([C@@H](C)CO)C[C@@H](C)[C@H](CN(C)Cc2ccccc2)OCCCC[C@H](C)O3)cc1`, for which the cytotoxicity call in assay [1] and in assay [2] was “inactive” each time. In addition, in assay [3], the growth inhibition call is “inactive”.

Turning to `Cc1ccccc1[C@@H](c1ncccc1C)N(C)C(=O)C1CCN(CCOc2ccc(Cl)cc2Cl)CC1`, in assay [1], the cytotoxicity call was “active”. Further, in assay [2], the cytotoxicity call was “inactive”. The growth inhibition call in assay [3] is “active”.

As to `CN(C)/C=N/[C@@H]1N=C(C2CC2)N(C)C(=O)N1`, the cytotoxicity call in assay [1] and in assay [2] was “inactive” in each case. In addition, the growth inhibition call in assay [3] is “inactive”.

On to `C[C@@H]1CCCCO[C@@H](CN(C)Cc2ccc(Cl)c(Cl)c2)[C@H](C)CN([C@@H](C)CO)C(=O)c2cc(NC(=O)Nc3ccc(F)cc3)ccc2O1`, for which the cytotoxicity call in assay [1] and in assay [2] was “inactive” in each case. In addition, in assay [3], the growth inhibition call is “inactive”.

With `CC(C)C[C@@H](NC(=O)[C@@H](C)N)C(=O)O`, the cytotoxicity call in assay [1] and in assay [2] was “inactive” throughout. The growth inhibition call in assay [3] was “inactive”.

As to `CCCC#Cc1cnc2c(c1)C(=O)N([C@H](C)CO)C[C@@H](C)[C@H](CN(C)S(=O)(=O)c1cn(C)cn1)O2`, the cytotoxicity call in assay [1] and in assay [2] was “inactive” in each case. Further, in assay [3], the growth inhibition call was “inactive”.

As to `O=C(CCCCCCC(=O)N/N=C/[C@H](O)[C@H](O)[C@@H](O)[C@@H](O)CO)NO`, the cytotoxicity call in assay [1] and in assay [2] was “inactive” in each case. Also, in assay [3], the growth inhibition call is “inactive”.

Regarding `O=C(C[C@@H]1CC[C@@H](NS(=O)(=O)c2ccc(F)cc2)[C@H](CO)O1)N1CCC(Cc2ccccc2)CC1`, the cytotoxicity call in assay [1] and in assay [2] was “inactive” throughout. Further, the growth inhibition call in assay [3] is “inactive”.

`COc1ccc(S(=O)(=O)Nc2ccc3c(c2)C(=O)N([C@H](C)CO)C[C@@H](C)[C@@H](CN(C)C(=O)c2ccccc2)OCCCC[C@H](C)O3)cc1`: the cytotoxicity call in assay [1] and in assay [2] was “inactive” in each case. In addition, the growth inhibition call in assay [3] is “inactive”.

As to `C[C@H]1CCCCO[C@H](CN(C)C(=O)NC2CCCCC2)[C@@H](C)CN([C@@H](C)CO)C(=O)c2cc(NC(=O)Nc3ccccc3)ccc2O1`, in assay [1], the cytotoxicity call is “inactive”. The cytotoxicity call in assay [2] was “active”. Also, the growth inhibition call in assay [3] is “inactive”.

As to `COCCNC(=O)C[C@@H]1CC[C@H]2[C@@H](COC[C@@H](O)CN2C(=O)Nc2ccccc2OC)O1`, the cytotoxicity call in assay [1] and in assay [2] was “inactive” in each case. Also, the growth inhibition call in assay [3] is “inactive”.

(Values after the antibiotic and cytotoxicity screens of Wong et al. (2023).)
